# Test results from PubChem BioAssay AID651582 (Sanford-Burnham Center for Chemical Genomics, 2012).
# The other results are listed elsewhere or left out. Further columns of the screen follow, without active or inactive calls. The list favours compounds with an active or inconclusive main result.
# Test: TAG lipid buildup reduction in H9c2 cells – cell-based, uHTS, fluorescence, primary screen (AID 651582)
# Details: Nile Red lipid (TAG) fluorescence, measured here:, at 12.5 µM, cells loaded with 200 µM oleic acid
row,SMILES,"DAPI nuclei signal change (viability), lower = more cytotoxic [%]"
1,C/C(=N\Nc1nc2ccccc2nc1C)c1ccccc1O,-17
2,N#C/C(=C\c1ccc(OC(F)F)cc1)C(=O)N1CCCCC1,-21.6
3,COc1cccc(Nc2nnc(SCc3cc([N+](=O)[O-])cc4c3OCOC4)s2)c1,-9.85
4,COc1cc(OC)c2cc(C(=O)N/N=C/c3cccc(OC)c3O)[nH]c2c1,-16
5,CCN(CC)CCCN(C(=O)c1cccs1)c1nc(-c2ccc(OC)cc2)cs1,19.3
6,CC(C)(C)c1ccc(Cn2c(=N)n(CC(O)c3ccco3)c3ccccc32)cc1 (stereo not given),-24.8
7,CCc1c(C2(O)CCCCC2)[nH]c2cnccc12,-6.55
8,Cc1ccc2nc(NC(=O)CN(C)S(=O)(=O)c3cccc4nsnc34)sc2c1,-26.4
9,COc1cccc(-c2nc(-c3ccc(NC(=O)Cc4ccccc4OC)cc3)no2)c1,-5
10,CCCCSc1nc2ccc(Nc3nc(N4CCOCC4)nc(N4CCOCC4)n3)cc2s1,13.1
11,C[C@H]1CN([C@@H](C)CO)C(=O)Cc2cc(NC(=O)CCC(F)(F)F)ccc2O[C@H]1CN(C)S(=O)(=O)c1ccc(Cl)cc1,-38.5
12,COc1cc2c(cc1OC)CN(C(=S)Nc1ccccc1Cl)CC2,-45.3
13,CCCCCc1cc(=O)oc2c(C(CCN3CCN(c4ccccc4)CC3)c3ccc(N(C)C)cc3)c(OC)cc(OC)c12 (stereo not given),-2.49
14,COc1cc(-c2noc(C)c2C#Cc2ccccn2)cc(OC)c1OC,-34.5
15,C[C@H](O)[C@@H]1CN2CCc3c([nH]c4ccc(-c5ccc6c(c5)OCO6)cc34)[C@@H]2C[C@@H]1N(C)C(=O)Nc1ccc(F)cc1,-41.8
16,Cc1cccc(NC(=O)C(C)Sc2nc3ccccc3c(=O)n2CCCN2CCOCC2)c1 (stereo not given),-10.8
17,Cn1nnnc1Sc1ncnc2scc(-c3ccc(Br)cc3)c12,-25
18,CCOc1ccc(OCC)c(NC(=O)CN(c2ccc(C)cc2)S(=O)(=O)c2c(C)noc2C)c1,-3.41
19,COC(=O)c1ccc(/C=C/c2c(-c3ccsc3)oc3ccc(N4CCOCC4)cc23)cc1,-5.05
20,COc1ccc(NC(=O)N(C)[C@H]2C[C@H]3c4[nH]c5ccc(-c6ccc7c(c6)OCO7)cc5c4CCN3C[C@H]2[C@H](C)O)cc1,-9.61
21,COc1ccc(C[C@H]2CN3C(=NC[C@@H]3Cc3ccc(O)cc3)N2CCNC(=O)c2ccc(C)c(Br)c2)cc1,-4.44
22,COc1cccc(C2c3cc4c(cc3OC(NNC(N)=O)C2C)OCO4)c1O (stereo not given),-34.3
23,CC1(C)CCCN(Cc2c(O)ccc3c(=O)c(-c4nc5ccccc5s4)c(N)oc23)C1,27.9
24,COc1cc2ccccc2cc1C(=O)N/N=C/c1cccs1,-45.4
25,O=C(O)c1ccc(N/N=C/c2ccc(-c3ccccc3Cl)o2)cc1,2.17
